Data from the supplement of paper PMC4604168 (melanoma cell lines).
Some of the results follow. Repeats are few or missing, and single values can be far off.

Experiments:
Experiment in all cases: cell count relative to DMSO control; melanoma cells; higher = more viable cells
Conditions in all cases: library dose: low library concentration; 72 h
[1] = test system: COLO792
[2] = test system: COLO800
[3] = test system: COLO829
[4] = test system: G361
[5] = test system: IPC-298
[6] = test system: IST-MEL1
[7] = test system: LB2518-MEL
[8] = test system: LOXIMVI
[9] = test system: MEL-HO
[10] = test system: MZ2-MEL
[11] = test system: MeWo
[12] = test system: RPMI7951
[13] = test system: RVH-421
[14] = test system: SkMel28
[15] = test system: SkMel2
[16] = test system: SkMel30
[17] = test system: SkMel5
[18] = test system: UACC257
[19] = test system: UACC62
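Further: cell number obtained by counting DAPI-stained nuclei in high-throughput microscope images with image analysis software, screen run in 1,536-well plates.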

Structure (SMILES) | cell count [1] [%] | cell count [2] [%] | cell count [3] [%] | cell count [4] [%] | cell count [5] [%] | cell count [6] [%] | cell count [7] [%] | cell count [8] [%] | cell count [9] [%] | cell count [10] [%] | cell count [11] [%] | cell count [12] [%] | cell count [13] [%] | cell count [14] [%] | cell count [15] [%] | cell count [16] [%] | cell count [17] [%] | cell count [18] [%] | cell count [19] [%]
CCCS(=O)(=O)Nc1ccc(F)c(C(=O)c2c[nH]c3ncc(Cl)cc23)c1F + Oc1cc(-c2nc(-c3ccccc3)[nH]c2-c2ccncc2)ccc1Cl [L779450] (first compound 0.08 µM, partner dose 0.2 µM) | 110 | 103 | 114 | 90.1 | 83 | 93.3 | 99.8 | 161 | 91.8 | 80.6 | 88.9 | 114 | 79.8 | 69.2 | 98.3 | 93.3 | 97.6 | 64.8 | 48.5
CN(c1ncccc1CNc1nc(Nc2ccc3c(c2)CC(=O)N3)ncc1C(F)(F)F)S(C)(=O)=O + N#Cc1c(O)c2c(-c3ccc(-c4ccccc4O)cc3)csc2[nH]c1=O [A769662] (first compound 0.08 µM, partner dose 2 µM) | 85.1 | 103 | 48.8 | 103 | 105 | 104 | 103 | 93.4 | 97.7 | 99.8 | 111 | 89.6 | 105 | 94.1 | 89 | 107 | 83.9 | 89.8 | 115
NC1(c2ccc(-c3nc4ccn5c(=O)[nH]nc5c4cc3-c3ccccc3)cc2)CCC1 + COc1cc2ncnc(Nc3ccc(Oc4ccccc4)cc3)c2cc1OC [SrcI1] (first compound 0.4 µM, partner dose 2 µM) | 60.4 | 91.1 | 86.9 | 90.3 | 104 | 96.1 | 80.8 | 114 | 74.3 | 93.3 | 92.5 | 80.2 | 97.2 | 74.6 | 89.4 | 79.9 | 118 | 76.6 | 65.3
CS(=O)(=O)c1ccc(C(=O)Nc2ccc(Cl)c(-c3ccccn3)c2)c(Cl)c1 [vismodegib] + CCN(CC)CCCCNc1ncc2cc(-c3cc(OC)cc(OC)c3)c(NC(=O)NC(C)(C)C)nc2n1 [PD173074] (first compound 1 µM, partner dose 0.1 µM) | 104 | 161 | 99.7 | 101 | 99 | 97.9 | 114 | 125 | 103 | 107 | 100 | 113 | 125 | 108 | 110 | 85.9 | 117 | 102 | 105
C=C(c1ccc(C(=O)O)cc1)c1cc2c(cc1C)C(C)(C)CCC2(C)C [Bexarotene] + Oc1nc(-c2ccc(C(F)(F)F)cc2)nc2c1CSCC2 [XAV939] (first compound 2 µM, partner dose 2 µM) | 82.1 | 123 | 96.8 | 72.8 | 94.3 | 106 | 114 | 99.7 | 97.3 | 95 | 92 | 64.8 | 82.4 | 93.1 | 95.7 | 133 | 92.1 | 88.6 | 89.1
CCCS(=O)(=O)Nc1ccc(F)c(C(=O)c2c[nH]c3ncc(Cl)cc23)c1F + C[C@@H]1CCN(C(=O)CC#N)C[C@@H]1N(C)c1ncnc2[nH]ccc12 [CP690550] (first compound 0.08 µM, partner dose 1 µM) | 93.9 | 89.4 | 115 | 84.8 | 96.5 | 97.7 | 101 | 131 | 85.2 | 88.3 | 90.6 | 116 | 99.5 | 76.3 | 90.4 | 89.5 | 106 | 103 | 62.5
CN(c1ncccc1CNc1nc(Nc2ccc3c(c2)CC(=O)N3)ncc1C(F)(F)F)S(C)(=O)=O + O=C(Nc1cccc(Cl)c1)Nc1ncc(CCNc2ncnc3ccsc23)s1 [SNS314] (first compound 0.08 µM, partner dose 0.0008 µM) | 85.8 | 107 | 84.1 | 82.7 | 104 | 86.2 | 85.8 | 80.9 | 92 | 91.5 | 84.7 | 91.2 | 89.3 | 71.5 | 92 | 101 | 81.9 | 77.7 | 72.8
C=C(c1ccc(C(=O)O)cc1)c1cc2c(cc1C)C(C)(C)CCC2(C)C [Bexarotene] + Oc1cc(-c2nc(-c3ccccc3)[nH]c2-c2ccncc2)ccc1Cl [L779450] (first compound 2 µM, partner dose 0.2 µM) | 111 | 181 | 116 | 94.7 | 88.4 | 99.2 | 83.6 | 161 | 84.1 | 89.5 | 98.3 | 103 | 106 | 73 | 97.2 | 98.8 | 116 | 103 | 74.5
CN(c1ncccc1CNc1nc(Nc2ccc3c(c2)CC(=O)N3)ncc1C(F)(F)F)S(C)(=O)=O + O=C(O)C(=O)Nc1sc2c(c1C(=O)O)CCNC2 [TCS401] (first compound 0.08 µM, partner dose 1.66667 µM) | 93.7 | 97.9 | 72.9 | 93.9 | 89.4 | 95.5 | 82.5 | 73.9 | 76.9 | 88.3 | 87.4 | 89.1 | 119 | 88.4 | 81.1 | 120 | 71.1 | 64.9 | 73.9
